This is one part of the list. These are further read-outs of the screen, such as a control signal, another cell line or another target. No call is given for them.
Assay: compounds boosting herpes simplex virus growth – fold increase, host cell viability (AID 1956); further: tested in PC3 cells
Conditions: HSV replication augmentation in cells; fold increase: measured here: primary screen fold increase 10 uM, at 10 µM, stronger effect = higher value; viability: measured here: host cell viability series, at 25 µM, stronger effect = lower value

Question: Which results are given for `CC(C)c1ccc(-n2c(O)c(/C=N/NC(=O)c3ccncc3)c(=O)[nH]c2=O)cc1`?
Answer: fold increase: 7.74; viability: 92.9%

Question: For `CCCCC(=O)N/N=C/c1c(O)n(Cc2ccco2)c(=O)[nH]c1=O`, which fold increase is on record?
Answer: 1.39

Question: And the viability?
Answer: 96.9%

Question: Which fold increase does the source give for `CCN(CC)c1ccc(N=Cc2c(O)n(Cc3ccco3)c(=O)[nH]c2=O)cc1` here?
Answer: 1.37

Question: And the viability?
Answer: 101%

Question: For `COc1ccc(CN2C(=O)NC(=O)/C(=C/c3ccoc3)C2=O)cc1`, which fold increase is on record?
Answer: 2.7

Question: And the viability?
Answer: 98.2%

Question: For `C#CCN1C(=O)S/C(=C\c2ccc(N3CCOCC3)cc2C)C1=O`, which fold increase is on record?
Answer: 2.04

Question: And the viability?
Answer: 100%

Question: For `CCOP(=O)(OCC)c1cccc(OP(=O)(c2cccc([N+](=O)[O-])c2)c2cccc([N+](=O)[O-])c2)c1`, which fold increase is on record?
Answer: 1.32

Question: What does the source list for `O=C1NC(=O)N(Cc2ccc(F)cc2)C(=O)/C1=C\C=C\c1ccco1`?
Answer: fold increase: 1.64; viability: 81.6%

Question: With `O=C(NCCN1CCCCC1)c1ccc(Cl)nc1Cl` as the compound, how does the fold increase read?
Answer: 1.32

Question: For `CC(C)c1ccc(N2C(=O)NC(=O)/C(=C/C=C/c3ccco3)C2=O)cc1`, which fold increase is on record?
Answer: 2.24

Question: With `Cc1cccc(N2C(=O)NC(=O)/C(=C\c3cc(C)n(-c4sc5c(c4C#N)CCCC5)c3C)C2=O)c1C` as the compound, how does the fold increase read?
Answer: 1.37

Question: With `O=c1cc(C(F)(F)F)c2cc3c4c(c2o1)CCCN4CCC3` as the compound, how does the fold increase read?
Answer: 18.8

Question: And the viability?
Answer: 82.9%

Question: Which results are given for `O=C1NC(=O)N(c2ccc(F)cc2)C(=O)/C1=C/c1ccc2c(c1)CCCN2Cc1ccccc1`?
Answer: fold increase: 1.46; viability: 93.8%

Question: Which fold increase does the source give for `O=C1NC(=O)C(=Cc2coc3ccc(O)cc3c2=O)C(=O)N1` here?
Answer: 1.41

Question: What about the viability of the same compound?
Answer: 96.8%

Question: Which fold increase does the source give for `O=C1NC(=O)N(Cc2ccccc2)C(=O)/C1=C\C=C\c1ccco1` here?
Answer: 3.03

Question: With `CCN(CC)c1ccc(N=Cc2c(O)n(CCC3=CCCCC3)c(=O)[nH]c2=O)cc1` as the compound, how does the fold increase read?
Answer: 2.15

Question: What about the viability of the same compound?
Answer: 76.8%

Question: With `O=C1NC(=O)N(c2cccc(Cl)c2)C(=O)/C1=C\c1ccc(Sc2nc3ccccc3[nH]2)o1` as the compound, how does the fold increase read?
Answer: 1.42

Question: What about the viability of the same compound?
Answer: 102%

Question: Which fold increase does the source give for `COc1cccc(-n2c(/C=C/c3ccc(O)c(O)c3)nc3ccccc3c2=O)c1` here?
Answer: 7.26

Question: And the viability?
Answer: 82.7%

Question: Which fold increase does the source give for `Cc1ccc(N2C(=O)NC(=O)/C(=C/c3cnc(-c4ccccc4)nc3)C2=O)cc1C` here?
Answer: 2.83

Question: And the viability?
Answer: 107%

Question: For `CCc1ccc(-n2c(O)c(/C=N/NC(=O)c3ccncc3)c(=O)[nH]c2=O)cc1`, which fold increase is on record?
Answer: 1.43

Question: What about the viability of the same compound?
Answer: 107%

Question: Which fold increase does the source give for `COc1ccc(N2C(=O)NC(=O)/C(=C\c3ccc([N+](=O)[O-])s3)C2=O)cc1` here?
Answer: 1.61

Question: What about the viability of the same compound?
Answer: 100%

Question: For `CN1C(=O)/C(=C\c2ccc(N3CCCCC3)o2)C(=O)NC1=S`, which fold increase is on record?
Answer: 2.34

Question: And the viability?
Answer: 94.1%

Question: For `Cc1cc2c(C(F)(F)F)cc(=O)oc2c2c1NCCC2`, which fold increase is on record?
Answer: 2.3

Question: With `O=C1NC(=O)N(c2ccc3c(c2)OCO3)C(=O)/C1=C/c1ccc(N2CCCCC2)o1` as the compound, how does the fold increase read?
Answer: 1.52

Question: And the viability?
Answer: 94.8%

Question: For `CN(C)c1ccc(/C=C/C=C2/C(=O)NC(=O)N(c3ccccc3)C2=O)cc1`, which fold increase is on record?
Answer: 1.37

Question: What about the viability of the same compound?
Answer: 64.9%

Question: What does the source list for `Cc1cc(/C=C2\C(=O)NC(=O)N(c3ccc(Cl)cc3)C2=O)c(C)n1-c1sc2c(c1C#N)CCCC2`?
Answer: fold increase: 1.51; viability: 89.8%

Question: For `COCCn1cc(C(=O)N2CCC3(CC2)OCCO3)c2c3ccccc3n(C)c2c1=O`, which fold increase is on record?
Answer: 1.32

Question: What about the viability of the same compound?
Answer: 95.3%

Question: Which fold increase does the source give for `Cc1cccc(-n2c(O)c(/C=N/Nc3nc4c(c(=O)n(C)c(=O)n4C)n3C)c(=O)[nH]c2=S)c1` here?
Answer: 1.36

Question: For `O=C1NC(=O)N(Cc2ccco2)C(=O)/C1=C/c1cccn1CCOc1ccccc1Cl`, which fold increase is on record?
Answer: 1.65

Question: And the viability?
Answer: 96.8%

Question: With `O=c1[nH]c(O)c(/C=C2/C=CC(c3cc(Cl)ccc3Cl)=N2)c(=O)[nH]1` as the compound, how does the fold increase read?
Answer: 1.34

Question: And the viability?
Answer: 73.8%

Question: Which results are given for `CCC(C)N1C(=O)/C(=C\c2ccc(N3CCCCCC3)cc2)C(=O)NC1=S` (configuration not stated)?
Answer: fold increase: 1.33; viability: 97.3%

Question: What does the source list for `C=CCN1C(=O)/C(=C\c2ccc(N3CCOCC3)o2)C(=O)NC1=S`?
Answer: fold increase: 1.42; viability: 96.6%

Question: Which fold increase does the source give for `C=CCn1c(=O)/c(=C\c2ccccn2)s/c1=C(/C#N)C(=O)NCC1CCCO1` (configuration not stated) here?
Answer: 1.39

Question: What about the viability of the same compound?
Answer: 97.2%

Question: For `CN1C(=O)C(=Cc2ccc(N3CCOCC3)o2)C(=O)N(C)C1=S`, which fold increase is on record?
Answer: 1.65

Question: Which fold increase does the source give for `C=CCNC(=O)c1c(N)n(Cc2ccco2)c2nc3ccccc3nc12` here?
Answer: 1.4

Question: And the viability?
Answer: 84.4%

Question: For `CN(C)[C@@H]1C(=O)C(C(N)=O)=C(O)[C@@]2(O)C(=O)C3=C(O)c4c(O)cccc4[C@@](C)(O)[C@H]3[C@H](O)[C@@H]12`, which fold increase is on record?
Answer: 1.32

Question: And the viability?
Answer: 97.4%

Question: Which results are given for `COCCNC(=O)c1c(NC(=O)c2ccc(Br)o2)n(Cc2ccccc2)c2nc3ccccc3nc12`?
Answer: fold increase: 2.78; viability: 96%

Question: With `O=c1[nH]c(=O)n(-c2ccccc2)c(O)c1/C=C/C=Nc1ccccc1` as the compound, how does the fold increase read?
Answer: 2.73

Question: What about the viability of the same compound?
Answer: 102%

Question: With `COc1ccc(CN2C(=O)NC(=O)/C(=C/c3ccc([N+](=O)[O-])o3)C2=O)cc1` as the compound, how does the fold increase read?
Answer: 1.46

Question: And the viability?
Answer: 95.5%

Question: For `Cc1ccc(/C=C2\C(=O)NC(=O)N(CCc3ccc(F)cc3)C2=O)o1`, which fold increase is on record?
Answer: 1.48

Question: What about the viability of the same compound?
Answer: 101%

Question: Which fold increase does the source give for `CCN(CC)c1ccc(C=C2C(=O)N(C)C(=S)N(C)C2=O)o1` here?
Answer: 1.77

Question: And the viability?
Answer: 97.3%
